# Data taken from PubChem BioAssay AID624296 (National Center for Advancing Translational Sciences (NCATS), 2012).
# About 9,900 (2.8%) of roughly 350,000 compounds were called active. The shares of active, inactive and inconclusive entries below differ from those in the screen. Calls follow the shape of the dose curve; as a rule, active = well fitted activation curve with a large enough effect; inconclusive = small, poorly fitted or top-dose-only effect; inactive = no such curve, though single readings can be large or run the other way. Potencies of inconclusive entries are left out as doubtful fits.
# Experiment: A quantitative high throughput screen for small molecules that induce DNA re-replication in MCF 10a normal breast cells. Also: nearly all actives have a fitted effect of over 50% in size. As to activity, positive = re-replication: % of control where 0% means no effect.
# Conditions: MCF 10A DNA re-replication, Hoechst nuclear intensity, 48 h; activity, positive = re-replication: at 46.1 µM (top of the series)
# Potency is read from the fitted curve at half-maximal effect; tags tell the direction and shape of the fitted curve.
Compound,Potency,"activity, positive = re-replication"
COc1c(C(=O)Nc2nnc(C3CC3)s2)csc1Cl,"inconclusive [activator, single point]",–
CC(=O)C[C@H](O)CC(=O)[C@@H]1OC(=O)CCCCCc2ccccc21,–,inactive: -16%
O=C(Nc1ccc2c(c1)OCCO2)c1cc2sccc2n1Cc1ccc(F)cc1,"inconclusive [activator, single point]",–
CC(OC(=O)c1ccc([N+](=O)[O-])cc1)C(=O)NCC1CCCCC1 (stereo not drawn),–,inactive: -0.0529%
Nc1cc(Cl)ccc1N1CCCCC1,–,inactive: -1.46%
CCN1C=C(C(=O)OC)C(c2cccc(OC)c2OC)C(C(=O)OC)=C1,"inconclusive [activator, single point]",–
Cc1n(CC(=O)c2ccc(F)cc2)c2ccccc2[n+]1C,"inconclusive [activator, partial curve, poor fit]",–
CS(=O)(=O)c1ccc2nc(NC(=O)C3CCCO3)sc2c1 (stereo not drawn),–,inactive: 0.228%
O=C(COc1ccc(C(=O)NCc2cccnc2)cc1)Nc1cccc(C(F)(F)F)c1,"inconclusive [activator, partial curve, poor fit]",–
N#Cc1ccc(/C=C(\C(=O)C(=O)O)c2ccc3ccccc3n2)cc1,"inconclusive [activator, single point]",–
O=S(=O)(NCC(c1ccco1)N1CCc2ccccc2C1)c1ccc(Br)cc1 (stereo not drawn),active: 4.11 µM,–
O=c1c(Cc2c(F)cccc2Cl)c(O)ccn1CCc1c[nH]c2ccccc12,"inconclusive [activator, single point]",–
Cc1ccc(Nc2nc(N/N=C\c3ccc4c(c3)OCO4)nc(N3CCOCC3)n2)cc1,"inconclusive [activator, single point]",–
Cc1cc(/C=N/NC(=O)c2cccnc2)c(C)n1CC(C)C,–,inactive: -3.64%
COc1ccc(C(CNC(=O)C(=O)Nc2ccc3c(c2)OCCO3)N2CCN(C)CC2)cc1 (stereo not drawn),"inconclusive [activator, partial curve, poor fit]",–
O=C(N/N=C/c1ccco1)c1cc(-c2ccc3ccccc3c2)n[nH]1,active: 7.94 µM,–
C[C@H](CO)N1C[C@H](C)[C@@H](CN(C)Cc2ccc(Cl)c(Cl)c2)Oc2c(NC(=O)Cc3ccccc3)cccc2C1=O,"inconclusive [activator, single point]",–
CCOC(=O)c1sc2nc(C)nc(Nc3ccc(OC)cc3)c2c1C,"inconclusive [activator, partial curve, poor fit]",–
CCN1CCN(c2ccc(NC(=O)COc3ccc(Cl)cc3C)cc2)CC1,–,inconclusive: 30.8% [activator]
CC(=O)c1ccc(-c2ccc(C(=O)N3CCN(c4ccc(F)cc4)CC3)o2)cc1,"inconclusive [activator, partial curve, poor fit]",–
O=C(Nc1ccc2nc(N3CCOCC3)sc2c1)c1ccccc1,"inconclusive [activator, single point]",–
CCC(C)(C)C1CCc2[nH]nc(C(=O)NC(C)C)c2C1 (stereo not drawn),"inconclusive [activator, full curve, poor fit]",–

Compound,Potency,"activity, positive = re-replication"
O=c1n(-c2ccccc2)c(=O)n2n1CCCC2,"inconclusive [activator, single point]",–
C[C@H](NC(=O)c1[nH]cnc1C(=O)Nc1ccccc1)c1ccccc1,"inconclusive [activator, single point]",–
COc1ccccc1CNC(=O)C1CCN(C(=O)NC2CCCCC2)CC1,"inconclusive [activator, single point]",–
CCN1CCN(c2cc(C)c3cc(NC(=S)N(CC)CC)ccc3n2)CC1,"inconclusive [activator, partial curve, poor fit]",–
CCCC(=O)Nc1nc2ccc3nc(C)sc3c2s1,"inconclusive [activator, partial curve, poor fit]",–
Cc1cc(C)cc(C(=O)NCC(=O)N(C)CCOc2ccccc2)c1,–,inactive: -4.95%
C#CCOCCOCCOCCNc1nc(N2CCN(C(=O)[C@H]([C@@H](C)CC)n3cc([C@@H](N)CC(C)C)nn3)CC2)nc(N2CCN(C(=O)[C@H]([C@@H](C)CC)n3cc([C@@H](N)CC(C)C)nn3)CC2)n1,–,inactive: -4.93%
CC(C)OP(=O)(c1ccc(N(C)C)cc1)C(O)c1ccc(Br)cc1 (stereo not drawn),–,inactive: 9.72%
CCCCCN(C(=O)CCC(=O)OCc1ccc(C(C)C)cc1)c1c(N)n(CCCC)c(=O)[nH]c1=O,active: 23.1 µM,–
O=C(CN1C(=O)COc2ccccc21)Nc1ccc2c(c1)OCCO2,"inconclusive [activator, single point]",–
CCc1cccc2c(C(=O)CN3C(=O)NC4(CCc5ccccc54)C3=O)c[nH]c12 (stereo not drawn),active: 14.6 µM,–
CC/C(=C/c1ccccc1)c1cccc2[nH]c3c(OC)cccc3c12,active: 20.6 µM,–
CCCOc1ccc(NC(=O)CNC(=O)c2cc(OC)cc(OC)c2)cc1OCCC,–,inactive: 11.1%
Cc1onc(-c2c(F)cccc2Cl)c1C(=O)O/N=C(\N)c1ccc([N+](=O)[O-])o1,"inconclusive [activator, single point]",–
CCOC(=O)c1ccc(NC(=O)c2nc[nH]c2C(=O)N[C@@H](CCCCNC(=O)OC(C)(C)C)C(=O)OC(C)(C)C)cc1,"inconclusive [activator, single point]",–
COc1cccc(NC(=O)CN(C)CC(=O)Nc2ccc(C)c(S(=O)(=O)N3CCOCC3)c2)c1,–,inactive: -2.37%
CC[n+]1c(C=C2C=C(C)OC(C)=C2)sc2ccccc21,"inconclusive [activator, partial curve, poor fit]",–
Cc1ccc2nc3c(cc(C(=O)NCc4ccccc4)c(=N)n3CCCn3ccnc3)c(=O)n2c1,active: 8.2 µM,–
N#Cc1ccc(CSc2nnc(COc3ccccc3)n2-c2ccccc2)cc1,–,inactive: 3.06%
CCCC(=O)n1nc(-c2cccnc2)nc1NCc1ccccc1,–,inactive: 1.18%
Cn1ncc(Oc2ccc([N+](=O)[O-])cc2)c(Cl)c1=O,"inconclusive [activator, partial curve]",–
